Experimental data reported in PubChem BioAssay AID662 (National Center for Advancing Translational Sciences (NCATS), 2007).
The campaign covered roughly 71,000 compounds. About 1,800 (2.5%) were called active. This list was built around the results that the source calls inconclusive (neither active nor inactive); the mix of calls is not that of the screen. The call rests on the fitted dose curve; in most records, active means well fitted activation curve with a large enough effect in the signal ratio, with a control signal flat (not every such curve was filed as active); inconclusive means small, poorly fitted or top-dose-only effect, or effect the other way, or a change in a side signal; inactive means flat fitted curve, though single readings scatter; the % refers to the signal ratio. Where the call is inconclusive, the potency comes from a doubtful curve fit.

test: Cell signaling CRE-BLA (Fsk stim); conditions: CHO CRE-bla reporter (cAMP response element driving beta-lactamase), forskolin EC10, beta-lactamase ratio; activity change, negative = inhibition: at 38.2 µM (top of the series) unless noted; on activity change, negative = inhibition: % of control where 0% means no effect
Method in brief: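 qHTS titration format; CRE-bla CHO reporter; stimulus EC10 NKH 477, a water-soluble forskolin. Read: CCF4 460/530 nm ratio. Potency expressed as AC50 for activators or inhibitors.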
Potency means the concentration at half of the fitted maximal effect; tags describe the fitted curve by direction and shape.

Structure (SMILES)	activity change, negative = inhibition	Potency
Cc1ccc(NC(=O)COC(=O)C2CC2C)c(S(=O)(=O)N2CCCCC2)c1 (configuration not stated)	inactive: -8.12%	
c1ccc(CSc2nnc(-c3cccs3)n2Cc2ccco2)cc1	inactive: 5.75%	
CCOC(=O)c1cccc(NC(=O)CCc2c(C)nc3ncnn3c2C)c1	inconclusive: 41.6%	
COc1ccc(CSc2nnc(C)n2N)cc1	inconclusive: -8.73%	
CCCCN(CC)S(=O)(=O)N1CCC(C(=O)NCc2ccc(F)cc2)CC1	inactive: -11.1%	
COc1ccc(NC(=O)CSc2nc3ccccc3c(=O)n2CCNC(C)=O)c(OC)c1		inconclusive: 12.6 µM [rising, partial curve]
CCOC(=O)c1[nH]c(C)c(C(=O)Nc2ccccc2F)c1C	inconclusive: 19.4%	
CCCCOc1ccccc1C1C(C(=O)OC)=CN(CC)C=C1C(=O)OC		inconclusive: 2.51 µM [rising, partial curve]
COc1ccc(CCNC(=O)CSc2nc(C)nc3c2oc2ccccc23)cc1OC		inconclusive: 0.251 µM [rising, full curve, poor fit]
COc1ccc(CCCc2nnc(SCC(=O)Nc3ncc(C)s3)o2)cc1		active: 10 µM
C[C@@H](NCc1cc(Br)cc2[nH]c(=O)c(=O)[nH]c12)P(=O)(O)O	inactive: -9.38%	
COc1ccc(CN2CC(C(=O)NCCCN3CCN(Cc4ccccc4)CC3)CC2=O)cc1 (configuration not stated)	inconclusive: -2.21%	
O=C(c1cccc(S(=O)(=O)N2CCCCC2)c1)N1CCCCC1	inconclusive: 7.97%	
COc1ccc(CNc2oc(C)nc2C#N)cc1	inactive: 4.9%	
CCN(CC)CCCN(Cc1cc2cc3c(cc2[nH]c1=O)OCO3)C(=O)Nc1ccccc1OC	inactive: -4.79%	
N#Cc1c(N)c(C#N)c(-c2ccc3c(c2)OCO3)c2c1CCCC2		inconclusive: 3.98 µM [rising, partial curve]
O=c1c(-c2cccs2)nc2cnc(N3CCOCC3)nc2n1Cc1ccc(F)cc1		inconclusive: 0.398 µM [rising, full curve]
O=C(COC(=O)C1=COCCO1)Nc1ccccc1Oc1ccccc1		inconclusive: 0.00398 µM [falling, full curve, poor fit]
COc1ccc(O)c(C(=O)c2cc(C#N)c(=O)n(CCN3CCOCC3)c2)c1	inactive: -2.21%	
CCOc1ccc2[nH]c(=O)c(CN(Cc3ccco3)C(CC)c3nnnn3Cc3ccccc3)cc2c1 (configuration not stated)	inactive: 23.1%	
C[C@@]12CC[C@H]3[C@H](CC=C4C[C@@H](O)CC[C@@]43C)[C@@H]1CC[C@@H]2N(CCO)CCO	inactive: 1.19% [at 7.6 µM]	
Cc1nc(NC(=O)CSc2nc3cccnc3n2Cc2ccccc2)sc1C		inconclusive: 0.158 µM [rising, partial curve]
